In PubChem BioAssay AID1508624 (National Center for Advancing Translational Sciences (NCATS), 2021):
About 120 (0.25%) of roughly 48,000 compounds were called active. Inconclusive results (about 4%) are left out. Calls come from the whole dose curve; as a rule, active = well fitted activation curve with a large enough effect; inconclusive = small, poorly fitted or top-dose-only effect, or another doubt; inactive = no such curve, though single readings can be large or run the other way. Some of the results follow.

Experiment: Primary qHTS for Identification of Small Molecule Activators of Huntingtin-Antisense Promoter Activity; note: nearly all actives have a fitted effect of over 55% in size
Conditions: HEK293 HTT-AS promoter firefly luciferase reporter, 24 h; series mostly up to 57.5 µM; activity change, positive = activation: at the top concentration
Method in brief: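 HEK293 luciferase promoter-reporter cells (2,500/well) plated 24 h, then compounds added at up to 57.5 uM final for 24 h at 37 °C. Firefly luminescence by Dual-Glo, normalized to vehicle (0%) and zero RLU (-100%).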

Activity change, positive = activation, inactive:
COc1ccc(OC)c(NC(=O)CCNS(=O)(=O)c2cccc3nsnc23)c1 -2.73%, CCOc1ccc2nc(S(N)(=O)=O)sc2c1 12.8%, CCc1ccc(NC(=O)CSc2nc3n[nH]c(C)c3c(=N)n2-c2ccc(C)cc2)cc1 -43.2%, O=C(Cc1ccc(NC(=O)N2CCCCc3ccccc32)cc1)NCc1ccccc1Br -17%, Cc1cccc(CCNC(=O)C2CCC(CNS(=O)(=O)c3c(C)cc(C)cc3C)CC2)c1 (stereo not given) -24.3%, COc1cc(Cl)c(C)cc1NC(=O)Cn1cc(S(=O)(=O)N2CCN(c3ccccc3F)CC2)c2ccccc2c1=O -4.52%, N#Cc1ccc(OC(=O)c2cc(-c3ccc(Cl)cc3)on2)cc1 3.56%, O=C(CCC1N=C2c3ccccc3N=C(SCC(=O)Nc3ccccc3F)N2C1=O)NCc1ccco1 (stereo not given) -0.0657%, Cc1cccc(NS(=O)(=O)c2ccc3[nH]c(=O)[nH]c3c2)c1C -18%, N[C@H](C(=O)O)c1ccc(O)cc1 -2.5% [at 25.1 µM, percent change from vehicle, -100% = no light], Cc1ccc(NC(=O)CN(C)S(=O)(=O)c2ccc3c(c2)n(C)c(=O)c(=O)n3C)c(C)c1 -10.5%, COc1ccc2c(c1)c1c(c(=O)n(Cc3ccccc3)c(=O)n1CC(=O)Nc1cc(C)cc(C)c1)n2C -14.1%, O=C(Nc1ccccc1OCc1cc(=O)n2ccccc2n1)c1cccc(Br)c1 0.301%, Cc1cc(C)cc(NC(=O)CSc2oc(-c3ccco3)nc2S(=O)(=O)c2ccccc2)c1 -18.8%, Cc1cccc(N2CCN(C(=O)c3ccc4c(c3)c(C)c(C)n4C)CC2)c1C -5.87%, CCOc1ccc(NC(=O)N2CCC(CN3CCCCCC3)CC2)cc1 -12.3%, Cc1ccc2c(n1)sc1c(=O)n(-c3cccc(C(F)(F)F)c3)nnc12 18.4%, Cc1ccc(Cl)cc1NC(=O)CCCn1c(=O)c2cccn2c2ccccc21 -26.3%, Clc1ccc(OCc2nc(-c3ccc(-n4cccc4)cc3)no2)cc1 -5.29% [at 11.5 µM, percent change from vehicle, -100% = no light], COc1ccc(-c2nc3scc(CCNS(=O)(=O)c4cc(F)ccc4OC)n3n2)cc1OC -12.8%, Cc1ccc(CCNC(=O)CCCn2c(=O)c3ccccc3n(CC(=O)Nc3cc(Cl)ccc3C)c2=O)cc1 -0.102%, CC(=O)N1CCc2c(sc3nc(SCC(N)=O)n(-c4ccc(F)c(Cl)c4)c(=O)c23)C1 -15.5%, Cc1ccc(CN2CCSc3ccc(C(=O)Nc4cc(C)cc(C)c4)cc32)cc1 0.248%, CN(C(=O)CSc1nnc(-c2ccc([N+](=O)[O-])cc2)o1)C1CCCCC1 0.225%, CC(=O)N1c2ccc(S(=O)(=O)N3CCCCCC3)cc2CC1C(=O)NCc1ccccc1 (stereo not given) -1.2%, COc1cc2ncnc(Nc3cccc(Cl)c3)c2cc1OC -12.2%, COCCn1c(C)cc(O)c(C(c2ccccc2)N2CCN(CCO)CC2)c1=O (stereo not given) 7.92%, COc1cc2c(cc1OC)C(COc1ccc3c(C)cc(=O)oc3c1)N(C(=O)c1cccc(OC)c1OC)CC2 (stereo not given) -15.6%, NNc1nnc(NN)c2ccccc12 10%, C=CCc1c(C)nc2nc(SCC(=O)Nc3cccc(Cl)c3)nn2c1C -29.7%, CC(C)CN(CC(C)C)c1nc(-c2ccc(Cl)cc2)nc2ccccc12 -6.73%, CO/N=C(/C(=O)N[C@@H]1C(=O)N2C(C(=O)O)=C(Cn3nnc(C)n3)CS[C@H]12)c1csc(N)n1 -6.26%, Cc1c(Cl)cccc1NC(=O)c1ccc2c(c1)nnn2C1CCCC1 -14.7%, CCOC(=O)c1c(C)oc2nc(C)nc(N(CC(C)C)CC(C)C)c12 -35.3%, O=C(Nc1ccccc1C(=O)OCc1cc(=O)n2c3c(sc2n1)CCCC3)c1ccccc1 -23.7%, O=C(CCS(=O)(=O)c1ccccc1)N(Cc1cccnc1)c1nc2c(Cl)cccc2s1 -6.61%, O=C(NCCCN1CCN(c2ccc(F)cc2)CC1)C1COc2ccccc2C1 (stereo not given) -21.5%, CCc1ccc(NC(=O)c2ccc3c(=O)n4nc(Nc5ccccc5C)sc4nc3c2)cc1 -55.7%, COc1ccc(Cl)cc1NC(=O)Cn1c(=O)n(Cc2nc(C)no2)c(=O)c2ccccc21 -18.7%, Clc1ccc(Nc2c(-c3cccs3)nc3ccc(Cl)cn23)cc1 10.2%, COc1ccc(CCNC(=O)Cn2c(=O)cc(C(F)(F)F)c3c(C)nn(C)c32)cc1OC -19.6%, CCc1cccc(NC(=O)c2cc3c(=O)[nH]c4ccccc4c3n2C)c1 -8.4%, Cc1ccc(C)c(CSC2=NC(C)(C)Nc3ccccc32)c1 -14%, CCOC(=O)c1sc2nc(C)n(CC(=O)Nc3cccc(Cl)c3)c(=O)c2c1C -7.58%, CC(=O)c1cccc(NC(=O)CSc2nnc3ccc(-c4ccc(Cl)cc4)nn23)c1 -19.9%, COc1ccc(CN(C)S(=O)(=O)c2nnc(NC(=O)C(C)C)s2)cc1OC -41.9%, O=C(O)c1ccccc1O -0.422%, COc1ccccc1NC(=O)C1=C(C)Nc2nc(SCc3ccccc3F)nn2C1c1cccnc1 (stereo not given) -11.5%, Cc1ccc(Cl)cc1NC(=O)c1sc2nc(-c3ccccc3)cn2c1C 4.35%, CCOc1ccc(NC(=O)c2cc(=O)c3cc(CC)ccc3o2)cc1 13.9% [at 11.5 µM, percent change from vehicle, -100% = no light], Cc1cccc(NC(=O)CSc2nc(=O)n(Cc3ccncc3)c3c2CCC3)c1C -11.6%, Cc1ccc(-c2noc(-c3ccccc3NC(=O)C3CC(=O)N(c4cccc(C)c4)C3)n2)cc1 (stereo not given) 22.7%, CCc1ccc(C2=C(C)C(N3CCC(C(=O)Nc4cccc(OC)c4)CC3)=NS2(=O)=O)cc1 -22.5%, Oc1ccc(/C=C/c2nc(-c3ccccc3O)n(-c3ccccc3)n2)c(O)c1 -17%, CCOC(=O)c1cccc(NS(=O)(=O)c2cc(-c3cnc(C)o3)ccc2OC)c1 -28.4%, CCCOc1ccc(C2C(=O)N(C3CCCCC3)CC(=O)N2CCc2ccccc2)cc1OC (stereo not given) -8.37%, CN(C)C(=O)c1ccc(NC(=O)Cn2nc(-c3ccccc3)c3ccccc3c2=O)cc1 -2.85%, CCOC(=O)c1c(NC(=O)COc2cc(C)ccc2C(C)C)sc2c1CCCC2 -4.68%, CCCCNC(=O)C(CC)Sc1nnc(-c2ccc(F)cc2)c(-c2ccc(F)cc2)n1 (stereo not given) -3.19%, Cc1cccc(NC(=O)c2c(NC(=O)c3cccs3)sc3c2CCC(C)C3)c1 (stereo not given) 6.32%
